# Data published in publication PMC6919601, “Identification of Plasmodium dipeptidyl aminopeptidase allosteric inhibitors by high throughput screening” (PLoS ONE, 2019).
# About 230 (0.21%) of roughly 110,000 compounds showed an effect of 50% or more. Some of the results follow.
# Target: DPAP1 (Plasmodium falciparum, UniProt Q8IIJ9)
# Test: primary screen, percent inhibition; read by cleavage of a fluorogenic dipeptide substrate; higher = more effect of the substance
# Design: species or system P. falciparum D10 trophozoite lysates; single well
# 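Also: 30 min substrate incubation versus DMSO and 10 µM JCP410 controls.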
# DPAP1, sequence (Q8IIJ9 whole entry, looked up): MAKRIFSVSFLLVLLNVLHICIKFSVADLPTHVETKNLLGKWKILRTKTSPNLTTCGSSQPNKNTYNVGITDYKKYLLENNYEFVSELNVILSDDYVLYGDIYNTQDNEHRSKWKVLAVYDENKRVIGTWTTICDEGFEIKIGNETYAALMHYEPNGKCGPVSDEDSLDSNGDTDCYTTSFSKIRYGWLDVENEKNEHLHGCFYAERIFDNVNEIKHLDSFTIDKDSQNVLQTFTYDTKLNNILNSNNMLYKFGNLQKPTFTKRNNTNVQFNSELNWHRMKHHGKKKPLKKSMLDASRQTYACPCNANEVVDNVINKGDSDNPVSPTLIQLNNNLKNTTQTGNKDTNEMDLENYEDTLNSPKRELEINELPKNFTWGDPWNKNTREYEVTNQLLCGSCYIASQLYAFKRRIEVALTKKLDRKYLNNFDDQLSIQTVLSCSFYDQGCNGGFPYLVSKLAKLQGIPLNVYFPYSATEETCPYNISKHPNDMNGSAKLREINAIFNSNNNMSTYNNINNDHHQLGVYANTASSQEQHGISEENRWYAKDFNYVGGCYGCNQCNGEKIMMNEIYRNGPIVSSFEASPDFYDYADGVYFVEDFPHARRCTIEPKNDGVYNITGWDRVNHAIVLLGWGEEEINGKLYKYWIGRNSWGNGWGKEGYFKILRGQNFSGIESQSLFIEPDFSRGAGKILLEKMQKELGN
row,Structure (SMILES),% Inhibition @ 10 uM [%]
1,COc1ccc(OC)c(C2=NOC(C(=O)Nc3cccnc3)C2)c1 (centres unmarked),1.24
2,CCOc1ccccc1N1CCN(C(=O)c2ccccc2C)CC1,1.4
3,O=c1cc2nc(-c3ccco3)nc(SCc3ccc(Br)cc3)n2[nH]1,-2.48
4,CC1CN(C(C)Cc2ccccc2F)CC(C)O1 (centres unmarked),-1.75
5,O=C(O)CSc1nc2ccccc2n1Cc1ccccc1,0.35
6,COC(=O)c1ccccc1-n1cc2c(c1-c1ccccc1)c(=O)n(C)c(=O)n2C,3.62
7,COCc1cc(C)nc2sc(C(=O)Nc3cccc(C)c3)c(N)c12,3.21
8,CN(CP(=O)(O)CCc1ccccc1)S(C)(=O)=O,-5.01
9,Cc1ccc(Cl)cc1-n1nnnc1C1(N2CCCC2)CCCCC1,-0.969
10,Cc1ccc(-c2nn(-c3ccccc3)cc2CN(Cc2ccccc2)C(=O)CCC(=O)O)o1,-9.37
11,O=C(Cn1nc(-c2ccc(Cl)cc2)ccc1=O)N1CCC2(CC1)OCCO2,-1.79
12,Cc1cc(NC(=O)CSc2nc3ccsc3c(=O)n2Cc2ccccn2)[nH]n1,-2.03
13,Cc1nn(Cc2ccc(C(=O)NC3C4CC5CC(C4)CC3C5)o2)c(C)c1Cl (centres unmarked),2.46
14,COCCNC(=O)Cn1nc(-c2ccc(C)cc2)ccc1=O,-3.22
15,Cc1oc(-c2ccc(Cl)cc2)nc1CN1CCC(C(=O)NCCC2=CCCCC2)CC1,-4.71
16,COc1cc(CN2CCN(c3ccccc3)CC2)cc(Br)c1O,-3.65
17,CC(C)(C)N1C(=O)C2C3C=CC(C2C1=O)C1C(=O)N(C(C)(C)C)C(=O)C31 (centres unmarked),-2.18
18,COc1ccc(OC)c(C2C3=C(O)CCCC3=NC(C)=C2C(=O)Nc2ccccc2F)c1 (centres unmarked),0.121
19,C#CCN1C(=O)S/C(=C\c2ccc(OC(C)C(=O)O)c(OC)c2)C1=O (centres unmarked),1.63
20,CCC(C)NC(=O)c1c(O)nc2c(c1O)CCCC2 (centres unmarked),-0.458
21,Cc1ccsc1C1C=C(c2cccc(Br)c2)Nc2ncnn21 (centres unmarked),-3.37
22,O=C(Cn1ccc2cc(S(=O)(=O)N3CCCC3)ccc21)NCCc1ccc(Cl)cc1,-2.56
23,Cc1c(CN(C)CCc2ccccc2)c(=O)n(-c2ccccc2)n1C,-0.292
24,O=S(=O)(c1ccccc1)N1CCN(Cc2cccc(Oc3ccccc3)c2)CC1,-3.4
25,CN1CCN(c2nc3c(O)ncnc3[nH]2)CC1,-1.54

row,Structure (SMILES),% Inhibition @ 10 uM [%]
1,CCc1ccccc1-n1c(C)cc(/C=C2/SC(=O)N(C)C2=O)c1C,-6.69
2,CC(=O)c1ccc2c(c1)c1ccccc1n2C,2.62
3,COc1ccc(Cl)cc1N(CC(=O)Nc1ccc(C(C)C)cc1)S(C)(=O)=O,0.324
4,N#CC1=C(N)C(C#N)(C#N)C(c2cccnc2)C2CSCC=C12 (centres unmarked),-1.93
5,CCOC(=O)N1CCN(C(=O)c2ccc3c(SCC(=O)O)c4c(nc3c2)CCC4)CC1,1.15
6,CC(C)NC(=O)c1cc2c(ccc3ccccc32)o1,-0.795
7,Fc1cccc(Cl)c1-c1nnc2ccc(N3CCN(Cc4ccc5c(c4)OCO5)CC3)nn12,1.76
8,CC(C)(C)OC(=O)N[C@@H](Cc1ccc(Br)s1)C(=O)NCC#N,-1.41
9,Cc1[nH]c2ccccc2c1/C=C1/SC(=O)N(CC(=O)Nc2ccc3c(c2)OCO3)C1=O,8.13
10,C=CCN1/C(=N\C(=O)C(CC)CC)SC2CS(=O)(=O)CC21 (centres unmarked),-2.92
11,Cc1onc(-c2ccccc2)c1C(=O)N1CCc2ccccc21,-0.267
12,O=C(CNC(=O)c1ccc(Cl)cc1Cl)c1ccccc1,5.73
13,O=C(c1ccccc1)c1oc2ccccc2c1NC(=O)c1cc2ccccc2oc1=O,-2.91
14,O=C(Cn1nnc(-c2ccccc2)n1)NCc1ccco1,-0.169
15,CCCS(=O)(=O)N1CCC(C(=O)NCCCN2CCCC2=O)CC1,-9.35
16,CCOc1ccc(-n2c(C)cc(/C=C3\C(=N)N4N=C(N5CCCC5)SC4=NC3=O)c2C)cc1,3.32
17,CN(CCC#N)C(=O)c1nn(C)c2c1COc1ccccc1-2,1.68
18,COC(=O)c1c(N)n(CCc2ccc(OC)c(OC)c2)c2nc3ccccc3nc12,-5.28
19,COc1ccc(CC(=O)Nc2ccccc2C(F)(F)F)cc1,-2.36
20,Cc1ccc(CNC(=O)c2ccc3[nH]c(C)c(C)c3c2)cc1,-4.33
21,Fc1ccccc1N1CCN(Cc2cccs2)CC1,-5.57
22,O=C(Nc1sc2c(c1C(=O)NCC1CCCO1)CCCC2)c1ccccc1 (centres unmarked),-2.67
23,CCOC(=O)C1CCCN(Cc2ccoc2)C1 (centres unmarked),1.55
24,Clc1ccc(CNC2CN3CCC2CC3)c(Cl)c1 (centres unmarked),3.19
25,CCOc1nc(C)ccc1-c1noc(-c2cccs2)n1,-5

row,Structure (SMILES),% Inhibition @ 10 uM [%]
1,COc1cc(C2CC(=O)c3cnc4c(-c5ccccc5)c(C)nn4c3C2)cc(OC)c1OC (centres unmarked),-1.11
2,CC(=O)Nc1nonc1NC(=O)c1ccc(F)cc1,1.03
3,CC1CCCN(C(=O)c2ccc(COc3ccc(Cl)cc3Cl)o2)C1 (centres unmarked),-3.13
4,O=c1c2ccccc2n2c(-c3cc(Cl)ccc3O)nnc2n1CCc1ccccc1,-1.72
5,COc1ccc(C2=NN3C(C2)c2cccc(OC)c2OC3(C)C)cc1 (centres unmarked),38.5
6,COC(=O)c1c(NC(=O)/C=C/c2ccccc2)sc2c1CCC2,10.5
7,CCOC(=O)c1c(C(=O)OCC)c2n(c1-c1ccccc1)Cc1ccccc1-2,2.39
8,CCOC(=O)c1c(NC(=O)c2ccccc2)sc([N+](=O)[O-])c1-c1ccccc1,-6.99
9,NC(=O)CCN(C1CCCCC1)S(=O)(=O)c1cccc2nsnc12,-5.36
10,CCc1ccc(-c2cn3c(n2)sc2cc(C(=O)O)ccc23)cc1,-7.02
11,C=C(C)CN1CCN(C(=O)CCCc2c[nH]c3ccccc23)CC1,0.238
12,COc1ccc(/C=C/C(=O)Nc2ccncc2)cc1OC,0.587
13,CC(Cc1ccc(F)cc1)NCC(C)(C)CN(C)C (centres unmarked),-0.292
14,O=C(Nc1cnc(O)nc1O)c1cccs1,-1.2
15,CC(=O)c1oc2ccccc2c1NC(=O)Cc1ccccc1,2.36
16,COc1cccc(-c2ccc(C#N)c(SCC(=O)Nc3ncc(C)s3)n2)c1,-6.18
17,O=C(Nc1ccc2c(c1)OCO2)c1ccc(Cl)c(Cl)c1,-6.39
18,COc1ccc(/C=c2\sc3nc(-c4cc(OC)c(OC)c(OC)c4)nn3c2=O)c(OC)c1,-2.98
19,CC(NC(=O)c1ccc(-n2cnc3cccnc32)cc1)c1ccccc1 (centres unmarked),-5.92
20,CC1=Nc2ncnn2C(c2ccc(C)cc2)/C1=C(\O)OC1CCCCC1 (centres unmarked),2.17
21,CCCn1c(SCc2ccc(F)cc2)nc2c1c(=O)n(C)c(=O)n2C,7.18
22,CCO/C(O)=C(/C(=N)NCc1ccco1)C(=O)c1ccccc1,2.95
23,Cc1ccccc1NC(=O)c1cccc2c1C(=O)c1ccccc1-2,4.74
24,CCOC(=O)N1CCC(/N=c2\c(O)c(O)\c2=N/Cc2cccc(OC)c2)CC1,3.54
25,CNC(=O)C1CN(S(=O)(=O)c2ccccc2)CCN1S(=O)(=O)c1ccccc1 (centres unmarked),-4.72

row,Structure (SMILES),% Inhibition @ 10 uM [%]
1,CCOC(=O)C1=C(CN2CC(C)CC(C)C2)NC(=O)NC1c1cccs1 (centres unmarked),3.54
2,Cc1ccccc1C(=O)Nc1sc2c(c1C(=O)NCc1cccnc1)CCCCC2,2.03
3,O=C(NC1CCCCCC1)C1CCCN(c2ncnc3c2sc2cccc(F)c23)C1 (centres unmarked),-2.37
4,CC(C)CCNc1nc2ccccc2c2nc(-c3ccccc3)nn12,-4.21
5,COc1cc(/C=C2/C(=N)N3OC(C)=CC3=NC2=O)cc(Cl)c1OCCOc1ccccc1C,2
6,CCc1ccc(Oc2nc3ccccn3c(=O)c2/C=C(\C#N)C(=O)NC)cc1,1.19
7,O=C1OC2CC3CC1CC(O)(C3)C2 (centres unmarked),-1.6
8,CCCC(=O)c1ccc(Oc2nc3c(c(=O)n(C)c(=O)n3C)n2Cc2ccccc2C)cc1,0.9
9,Cc1ccc(/C=C(\C#N)c2nc(-c3ccc([N+](=O)[O-])cc3)cs2)cc1,-0.546
10,Cc1cc(C)cc(-n2c(C)cc(/C=C3\C(=N)N4N=C(N5CCOCC5)SC4=NC3=O)c2C)c1,-1.66
11,CC1=C(C(=O)OC2CCCC2)C(c2ccc(C(F)(F)F)cc2)C2=C(O)CCCC2=N1 (centres unmarked),-3.41
12,O=C(C1COc2cc(S(=O)(=O)NC3CCCC3)ccc2O1)N1CCCCC1 (centres unmarked),6.88
13,Cc1c(C(=O)NCCCN2CCOCC2)oc2c1-c1nn(Cc3ccc(Cl)cc3)cc1CC2,3.27
14,N#CC1=C(N)Oc2[nH]nc(-c3ccc4c(c3)OCO4)c2C1c1ccncc1 (centres unmarked),-0.941
15,Cc1nc2nc(N)nn2c(C)c1Cl,-4.19
16,COc1ccc(NC(=O)c2nc[nH]n2)cc1,-4.03
17,Cc1cc(C)c2oc(C(=O)N(Cc3ccco3)C3CCS(=O)(=O)C3)cc(=O)c2c1 (centres unmarked),6.56
18,Cc1sc(NC(=O)C2C3CCC(C3)C2C(=O)O)c(C(N)=O)c1C (centres unmarked),4.78
19,CCN(CC)CCN(C)Cc1ccc(Cl)cc1Cl,1.26
20,CC1CCN(C(=O)CC/N=c2/c(N3CCCC3)c(O)c2=O)CC1,3.3
21,Cc1ccc2c(cnn2C(=O)CCCC(=O)NCCN2CCCC2)c1,-1.11
22,CCn1c(=N)c(C(=O)NC(C)c2ccccc2)cc2c(=O)n3cc(C)ccc3nc21 (centres unmarked),1.97
23,CCOCCCNC(=O)/C(C#N)=C/c1c(Oc2cccc(C)c2C)nc2c(C)cccn2c1=O,2
